Test results reported in article PMC2854127, “Structural Basis for Fe–S Cluster Assembly and tRNA Thiolation Mediated by IscS Protein–Protein Interactions” (PLoS Biology, 2010).
These are yes or no findings as the source states them, for the method shown. For part of these data: In cells and extracts the contact can be indirect. Some entries that bind do so weakly or less than the wild type. For part of these data: Where a sequence is shown, tags or fusion partners need not be part of it.

Amino acid sequences for entries named in this document (tags omitted).
UniProt P0A890: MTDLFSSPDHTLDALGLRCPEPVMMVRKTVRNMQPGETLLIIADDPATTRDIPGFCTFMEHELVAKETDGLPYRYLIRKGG

What was measured:
[1] = target: GST-IscU K103E (E. coli O157:H7 EDL933) (UniProt P0ACD6); experiment: pull-down
GST-CyaY [2] = target: T1, GST-CyaY (UniProt P27838); experiment: pull-down
T1 sequence: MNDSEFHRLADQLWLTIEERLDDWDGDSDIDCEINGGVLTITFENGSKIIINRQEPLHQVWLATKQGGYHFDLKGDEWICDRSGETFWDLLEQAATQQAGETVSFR

GST-TusA (wild type) [3] = target: GST-TusA (wild type) (UniProt P0A890); experiment: pull-down
GST-IscX [4] = target: T2, GST-IscX (UniProt P0C0L9); experiment: pull-down
T2 sequence: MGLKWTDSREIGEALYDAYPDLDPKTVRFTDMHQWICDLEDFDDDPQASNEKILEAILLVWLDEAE

GST-ThiI = target: T3, GST-ThiI (UniProt P77718); experiment: pull-down
T3 sequence: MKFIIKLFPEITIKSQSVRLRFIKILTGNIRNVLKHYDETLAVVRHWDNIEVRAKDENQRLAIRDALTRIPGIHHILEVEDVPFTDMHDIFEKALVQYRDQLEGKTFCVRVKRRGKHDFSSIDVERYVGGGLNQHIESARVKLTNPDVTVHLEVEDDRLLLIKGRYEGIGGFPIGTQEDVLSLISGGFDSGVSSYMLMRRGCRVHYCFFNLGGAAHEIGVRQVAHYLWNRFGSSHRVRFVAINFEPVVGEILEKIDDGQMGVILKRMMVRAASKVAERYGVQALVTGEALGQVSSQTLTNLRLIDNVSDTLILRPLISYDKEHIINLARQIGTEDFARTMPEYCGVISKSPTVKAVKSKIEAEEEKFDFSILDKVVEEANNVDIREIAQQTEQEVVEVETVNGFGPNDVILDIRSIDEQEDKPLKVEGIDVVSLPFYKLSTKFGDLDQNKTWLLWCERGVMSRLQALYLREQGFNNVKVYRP

[5] = target: GST-IscU D9R (E. coli O157:H7 EDL933) (UniProt P0ACD6); experiment: pull-down
[6] = target: GST-IscU E98R (E. coli O157:H7 EDL933) (UniProt P0ACD6); experiment: pull-down
[7] = target: GST-IscU Y11A (E. coli O157:H7 EDL933) (UniProt P0ACD6); experiment: pull-down
[8] = target: GST-IscU E5L (E. coli O157:H7 EDL933) (UniProt P0ACD6); experiment: pull-down
GST-IscU (wild type) = GST-IscU (wild type) (UniProt P0ACD6); experiment: pull-down
GST-CyaY [9] = target: T1, GST-CyaY; experiment: pull-down; both purified
GST-TusA (wild type) [10] = target: GST-TusA (wild type) (UniProt P0A890); experiment: pull-down; both purified
GST-IscX [11] = target: T2, GST-IscX; experiment: pull-down; both purified

Row | Substance | binding (GST-CyaY [2]) | binding (GST-IscX [4]) | binding (GST-ThiI) | binding (GST-IscU (wild type)) | other results
1 | His6-IscS (wild type) (from UniProt P0A6B9) (enzyme) | binds | binds | binds | – | binding [1]: no binding; binding (GST-TusA (wild type) [3]): binds; binding [5]: binds; binding [6]: binds; binding [7]: binds; binding [8]: binds
2 | His6-IscS A327V (from UniProt P0A6B9) (enzyme) | – | no binding | – | – | –
3 | His6-IscS C328S (from UniProt P0A6B9) (enzyme) | – | – | binds | binds | –
4 | His6-IscS D52A (from UniProt P0A6B9) (enzyme) | – | – | – | binds | –
5 | His6-IscS D52M (from UniProt P0A6B9) (enzyme) | – | – | – | binds | –
6 | His6-IscS D52R (from UniProt P0A6B9) (enzyme) | binds | binds | – | binds | –
7 | His6-IscS D52Y (from UniProt P0A6B9) (enzyme) | – | – | – | binds | –
8 | His6-IscS D65F (from UniProt P0A6B9) (enzyme) | binds | binds | binds | binds | –
9 | His6-IscS D346R (from UniProt P0A6B9) (enzyme) | – | binds | binds | binds | –
10 | His6-IscS E49A (from UniProt P0A6B9) (enzyme) | – | – | – | binds | –
11 | His6-IscS E311R (from UniProt P0A6B9) (enzyme) | – | binds | – | binds | –
12 | His6-IscS F89E (from UniProt P0A6B9) (enzyme) | – | – | – | binds | –
13 | His6-IscS G234L (from UniProt P0A6B9) (enzyme) | – | – | binds | binds | –
14 | His6-IscS L386R (from UniProt P0A6B9) (enzyme) | – | binds | binds | binds | –
15 | His6-IscS M389R (from UniProt P0A6B9) (enzyme) | – | – | – | binds | –
16 | His6-IscS R39E (from UniProt P0A6B9) (enzyme) | – | binds | binds | binds | –
17 | His6-IscS R112E (from UniProt P0A6B9) (enzyme) | – | – | binds | binds | –
18 | His6-IscS R116E (from UniProt P0A6B9) (enzyme) | – | – | – | binds | –
19 | His6-IscS R220E (from UniProt P0A6B9) (enzyme) | no binding | no binding | no binding | binds | –
20 | His6-IscS R223E (from UniProt P0A6B9) (enzyme) | no binding | no binding | – | – | –
21 | His6-IscS R223E/R225E (from UniProt P0A6B9) (enzyme) | – | no binding | – | binds | –
22 | His6-IscS R225E/E227R (from UniProt P0A6B9) (enzyme) | no binding | no binding | binds | binds | –
23 | His6-IscS R237E/M239E (from UniProt P0A6B9) (enzyme) | no binding | no binding | no binding | binds | –
24 | His6-IscS R340E (from UniProt P0A6B9) (enzyme) | no binding | – | no binding | binds | –
25 | His6-IscS W45R (from UniProt P0A6B9) (enzyme) | binds | binds | – | binds | –
26 | His6-IscS-IscU complex (formed beforehand) (from UniProt P0A6B9;P0ACD6) | – | – | – | – | binding (GST-CyaY [9]): binds; binding (GST-TusA (wild type) [10]): no binding; binding (GST-IscX [11]): binds
